The whole screen tested about 310,000 compounds, of which about 14,000 (4.5%) showed an effect of 50% or more. The effect is printed as a negative number. This is one part of the list.
The molecules below were run against human ether-à-go-go-related gene (hERG) potassium channel (human, UniProt Q12809) (assay: primary screen, population patch clamp on CHO cells stably expressing hERG).
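Also: peak tail current of the secondary pulse compared with the same well before compound.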

Chain of human ether-à-go-go-related gene (hERG) potassium channel (Q12809 whole entry, looked up): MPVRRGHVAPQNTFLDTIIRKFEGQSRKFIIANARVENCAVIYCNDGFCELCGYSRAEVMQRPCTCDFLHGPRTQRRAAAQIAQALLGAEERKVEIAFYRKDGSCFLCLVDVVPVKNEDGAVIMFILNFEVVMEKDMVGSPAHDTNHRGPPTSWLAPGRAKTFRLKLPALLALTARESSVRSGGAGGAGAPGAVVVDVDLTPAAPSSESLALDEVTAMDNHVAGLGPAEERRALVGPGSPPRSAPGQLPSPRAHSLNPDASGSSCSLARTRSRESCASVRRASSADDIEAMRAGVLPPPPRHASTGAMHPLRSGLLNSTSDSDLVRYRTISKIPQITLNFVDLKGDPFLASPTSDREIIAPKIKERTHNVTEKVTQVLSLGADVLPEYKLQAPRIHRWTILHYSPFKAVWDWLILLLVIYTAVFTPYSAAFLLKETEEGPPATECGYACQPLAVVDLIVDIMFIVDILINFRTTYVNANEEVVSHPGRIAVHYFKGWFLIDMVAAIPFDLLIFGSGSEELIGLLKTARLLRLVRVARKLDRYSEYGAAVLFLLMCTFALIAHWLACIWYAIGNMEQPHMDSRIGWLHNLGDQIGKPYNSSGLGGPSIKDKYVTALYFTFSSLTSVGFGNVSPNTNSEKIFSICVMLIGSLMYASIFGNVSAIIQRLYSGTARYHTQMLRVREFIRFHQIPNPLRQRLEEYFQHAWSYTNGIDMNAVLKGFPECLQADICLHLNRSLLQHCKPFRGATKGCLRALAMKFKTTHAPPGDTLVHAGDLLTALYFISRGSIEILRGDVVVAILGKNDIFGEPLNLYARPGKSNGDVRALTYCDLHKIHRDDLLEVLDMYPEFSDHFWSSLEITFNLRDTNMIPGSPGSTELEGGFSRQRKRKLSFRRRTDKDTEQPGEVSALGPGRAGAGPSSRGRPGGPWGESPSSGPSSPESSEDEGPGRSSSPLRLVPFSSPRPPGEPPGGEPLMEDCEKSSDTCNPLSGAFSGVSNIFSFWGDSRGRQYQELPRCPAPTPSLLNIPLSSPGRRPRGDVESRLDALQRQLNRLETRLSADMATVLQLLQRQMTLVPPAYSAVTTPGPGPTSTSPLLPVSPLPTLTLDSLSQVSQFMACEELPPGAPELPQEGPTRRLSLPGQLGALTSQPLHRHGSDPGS

Row | Compound | hERG current change (%, negative = inhibition) at 10uM [%]
1 | CN(C)CCc1nn[nH]n1 | -0.456
2 | O=S(=O)(c1ccc(Oc2ccc(F)c(Cl)c2)nc1)N1CCOCC1 | -3.58
3 | CC(=O)Nc1cccc(Oc2ccc(-c3noc(C)n3)cc2)c1 | 6.94
4 | Cc1nc2cc(C(=O)O)ccc2n1-c1ccc(F)cc1F | 8.5
5 | O=C1NC(=Nc2ccccc2Cl)S/C1=C\c1cc([N+](=O)[O-])ccc1O | 5.25
6 | COc1ccccc1NC(=O)CN(Cc1ccco1)C(=O)c1cc2ccccc2o1 | -28.7
7 | N#C/C(=C\c1cccnc1)c1ccc([N+](=O)[O-])cc1 | -56.3
8 | CCN(CC)C(=O)CSc1nc2cc(S(=O)(=O)N3CCOCC3)ccc2n1CC | 5.94
9 | COc1ccc(NC2=C3CC(C)CC=C3N(c3ccc(OC)cc3)C2=O)cc1 (centres unmarked) | -2.77
10 | N#CCc1nc(CSc2nc3ccccc3s2)cs1 | -2.16
11 | Cc1cccc(NC(=O)CN2C(=O)NC(C)(c3ccc4c(c3)OCO4)C2=O)c1 (centres unmarked) | -22.7
12 | CN(C(=O)c1nn(C)c2c1CSc1ccccc1-2)c1ccc(F)cc1 | 0.0295
13 | Cc1sc(NC(=O)CCC(=O)O)c(C(N)=O)c1-c1ccccc1 | 4.38
14 | Cc1ccc(/C=N/NC(=O)Cc2cccs2)o1 | 4.51
15 | NC(=O)Cn1cc(C(=O)c2cccs2)c2ccccc21 | -2.95
16 | CNc1c(NS(=O)(=O)c2ccc3c(c2)CCCC3)c(=O)oc2ccccc12 | 18.3
17 | Cc1ccc(C(=O)Nc2nnc(COc3ccccc3)s2)cc1 | 3.6
18 | COc1ccc(/C=C(/NC(C)=O)C(=O)O)cc1 | 2.12
19 | CCOC(=O)N1CCC(NC(=O)CCS(=O)(=O)c2ccc3c(c2)CCN3C(C)=O)CC1 | 3.21

Row | Compound | hERG current change (%, negative = inhibition) at 10uM [%]
20 | O=C1CCc2cc(S(=O)(=O)NC(Cc3ccccc3)C(=O)N3CCN(c4ccccn4)CC3)ccc2N1 (centres unmarked) | -3.54
21 | S=C(Nc1cccnc1)Nc1ccccc1Br | 91.1
22 | CCOC(=O)C1(Cc2ccccc2C(F)(F)F)CCN(CCCn2cccn2)CC1 | -82.1
23 | O=C(OCc1nc2ccccc2[nH]1)C1CCCCC1 | 2.85
24 | O=c1[nH]c(=O)n(CCc2ccccc2)c(O)c1/C=N/N1CCOCC1 | 7.29
25 | CCCCC(=O)Nc1ccc2oc(-c3ccncc3)nc2c1 | -22.8
26 | COc1ccc(C(C(=O)NC2CCCC2)N(C(=O)c2snc(-c3ccc(F)cc3)c2N)c2ccc(OC)cc2)cc1 (centres unmarked) | -9.51
27 | Cc1ccc2nc(C)cc(C(=O)OCC(=O)Nc3cccnc3Cl)c2c1 | -15.4
28 | CCN1CCN(c2ccc(N=Cc3ccc(O)cc3O)cc2)CC1 | -4.58
29 | CC(=O)Nc1ccc(S(=O)(=O)N(C)CC(=O)OCC(=O)NCc2ccco2)cc1 | -6.79
30 | CCOc1ccc(S(=O)(=O)N(CC)CC)cc1N | 19.2
31 | Cc1cccc2c1OCC/C2=N\NC(=O)COc1ccccc1 | 16
32 | Cc1nc([N+](=O)[O-])c(C(=O)OCc2cccc(Br)c2)n1C | -22.2
33 | O=C(NC1CC2CCCC(C1)N2Cc1ccccc1)c1ccc([N+](=O)[O-])cc1 (centres unmarked) | -81
34 | CN1C(C(=O)NCc2cccs2)=CC(c2ccc(F)cc2)=NS1(=O)=O | -39.4
35 | O=C(Nc1ccc(N2CCCC2=O)cc1)c1cccc(F)c1 | -11
36 | COc1cccc(OC)c1C(=O)Nc1ccccc1C(=O)N1CCOCC1 | 5.4
37 | O=C(Nc1ccncc1)c1ccc(NS(=O)(=O)c2cccc(F)c2)cc1 | 3.24
38 | CCc1cccc(C)c1NC(=O)COC(=O)CC1CCCC1 | 9.2

Row | Compound | hERG current change (%, negative = inhibition) at 10uM [%]
39 | COC(=O)[C@@H]1C[C@@]2(O)[C@@H](O)[C@@H](O)[C@@H](O)C[C@H]2N1Cc1ccc(-c2ccccc2)cc1 | -7.43
40 | COc1ccc(C(CNC(=O)CNC(=O)c2ccc(F)cc2)N2CCCC2)cc1 (centres unmarked) | -18.1
41 | CCn1c(COc2ccc(=O)n(-c3ccccc3)n2)nnc1SCc1ccc(C)cc1 | -59.9
42 | O=C(COC(=O)C12CC3CC(CC(O)(C3)C1)C2)Nc1ccc(Br)cc1F | -21.5
43 | COc1ccc(-n2c(SCC(=O)Nc3ccc(C)cc3)nc(O)c(Cc3ccccc3)c2=O)cc1 | 14.6
44 | CCC(O)(CC)C(=O)NN(C(=O)Nc1csc2c1CCCC2)c1ccccc1 | 24.2
45 | COc1ccc(N(C(=O)c2cccnc2)S(=O)(=O)c2ccccc2)cc1 | -39.6
46 | N#CC(C#N)=c1ccc2c(c1)NC1(CCCCC1)N=2 | 3.2
47 | Cc1nn(C)c(C)c1CN(C(=O)C1CCC(=O)N(C2CCCCCC2)C1)C(C)C (centres unmarked) | 10
48 | CNS(=O)(=O)c1cccc(C(=O)OC2CCCCC2=O)c1 (centres unmarked) | 23.8
49 | OCc1ccc(O)c2ncccc12 | 1.44
50 | C/C(=N/OC(=O)C1CC1c1ccccc1)c1ccccc1 (centres unmarked) | 11.6
51 | COCCCNc1nc2ccccc2nc1NS(=O)(=O)c1ccc(C)cc1 | -8.35
52 | CCOC(=O)Nc1ccc(NC(=O)c2c(OC)cccc2OC)cc1 | 11.1
53 | COCCCNC(=O)CCn1c(=O)c2ccccc2n(Cc2cccc([N+](=O)[O-])c2)c1=O | -44.7
54 | COC(=O)c1ccc(C2NC(=O)CCC2[N+](=O)[O-])cc1 (centres unmarked) | 10.2
55 | COCCCC1CCN(Cc2nc(Cc3ccccc3Cl)no2)CC1 | 5.07
56 | CCc1cc(C(=O)O)c(NC(=O)C(c2ccccc2)c2ccccc2)s1 | 18
